Experimental data reported in the supplement of paper PMC8728848.
Some of the results follow.

Columns and labels:
Assay in all cases: glycan array binding signal (z-score within array); higher = stronger binding
Details in all cases: glycan notation: IUPAC condensed, linker removed
Gal(a1-3)Gal = molecular target: Gal(a1-3)Gal
Outline: (§1)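 Glycan array binding is given as a within-array Z-score, which can be read as non-binding when negative. The arrays, 3228 of them, came from the Consortium for Functional Glycomics database and were retained only where the protein sequence was available. Z-scores were averaged across arrays of the same protein sequence at different concentrations or buffers and across linkers.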

Gal(a1-3)Gal(b1-3)GlcNAc = molecular target: Gal(a1-3)Gal(b1-3)GlcNAc
Outline: as §1

Gal(a1-3)Gal(b1-4)Glc = molecular target: Gal(a1-3)Gal(b1-4)Glc
Outline: as §1

Gal(a1-3)Gal(b1-4)GlcNAc = molecular target: Gal(a1-3)Gal(b1-4)GlcNAc
Outline: as §1

[1] = molecular target: Gal(a1-3)Gal(b1-4)[Fuc(a1-3)]GlcNAc
Outline: as §1

[2] = molecular target: Gal(a1-3)Gal(b1-4)[Fuc(a1-3)]GlcNAc(b1-2)Man(a1-3)[Gal(a1-3)Gal(b1-4)[Fuc(a1-3)]GlcNAc(b1-2)Man(a1-6)]Man(b1-4)GlcNAc(b1-4)GlcNAc
Outline: as §1

Gal(a1-3)GalNAc = molecular target: Gal(a1-3)GalNAc
Outline: as §1

[3] = molecular target: Gal(a1-3)[Gal(a1-4)]Gal(b1-4)GlcNAc
Outline: as §1

Gal(a1-4)Gal(b1-4)Glc = molecular target: Gal(a1-4)Gal(b1-4)Glc
Outline: as §1

Gal(a1-4)Gal(b1-4)GlcNAc = molecular target: Gal(a1-4)Gal(b1-4)GlcNAc
Outline: as §1

[4] = molecular target: Gal(a1-4)Gal(b1-4)GlcNAc(b1-3)Gal(b1-4)Glc
Outline: as §1

Gal(a1-4)GlcNAc = molecular target: Gal(a1-4)GlcNAc
Outline: as §1

Gal(a1-6)Glc = molecular target: Gal(a1-6)Glc
Outline: as §1

Gal(b1-2)Gal = molecular target: Gal(b1-2)Gal
Outline: as §1

Gal(b1-3)Gal = molecular target: Gal(b1-3)Gal
Outline: as §1

Gal(b1-3)Gal(b1-4)GlcNAc = molecular target: Gal(b1-3)Gal(b1-4)GlcNAc
Outline: as §1

[5] = molecular target: Gal(b1-3)Gal(b1-4)GlcNAc(b1-2)Man(a1-3)[Gal(b1-3)Gal(b1-4)GlcNAc(b1-2)Man(a1-6)]Man(b1-4)GlcNAc(b1-4)GlcNAc
Outline: as §1

Gal(b1-3)GalNAc = molecular target: Gal(b1-3)GalNAc
Outline: as §1

[6] = molecular target: Gal(b1-3)GalNAc(a1-3)[Fuc(a1-2)]Gal(b1-4)Glc
Outline: as §1

[7] = molecular target: Gal(b1-3)GalNAc(a1-3)[Fuc(a1-2)]Gal(b1-4)GlcNAc
Outline: as §1

[8] = molecular target: Gal(b1-3)GalNAc(b1-3)Gal(a1-4)Gal(b1-4)Glc
Outline: as §1

[9] = molecular target: Gal(b1-3)GalNAc(b1-4)Gal(b1-4)Glc
Outline: as §1

[10] = molecular target: Gal(b1-3)GalNAc(b1-4)[Neu5Ac(a2-3)]Gal(b1-4)Glc
Outline: as §1

Gal(b1-3)GlcNAc = molecular target: Gal(b1-3)GlcNAc
Outline: as §1

[11] = molecular target: Gal(b1-3)GlcNAc(b1-2)Man(a1-3)[Gal(b1-3)GlcNAc(b1-2)Man(a1-6)]Man(b1-4)GlcNAc(b1-4)GlcNAc
Outline: as §1

[12] = molecular target: Gal(b1-3)GlcNAc(b1-2)Man(a1-3)[Gal(b1-3)GlcNAc(b1-2)Man(a1-6)]Man(b1-4)GlcNAc(b1-4)[Fuc(a1-6)]GlcNAc
Outline: as §1

[13] = molecular target: Gal(b1-3)GlcNAc(b1-3)Gal(b1-3)GlcNAc
Outline: as §1

[14] = molecular target: Gal(b1-3)GlcNAc(b1-3)Gal(b1-4)Glc
Outline: as §1

[15] = molecular target: Gal(b1-3)GlcNAc(b1-3)Gal(b1-4)GlcNAc
Outline: as §1

[16] = molecular target: Gal(b1-3)[Fuc(a1-4)]GlcNAc
Outline: as §1

B1: Neuropilin-2 (Homo sapiens), O60462 (protein)
chain: MDMFPLTWVFLALYFSRHQVRGQPDPPCGGRLNSKDAGYITSPGYPQDYPSHQNCEWIVYAPEPNQKIVLNFNPHFEIEKHDCKYDFIEIRDGDSESADLLGKHCGNIAPPTIISSGSMLYIKFTSDYARQGAGFSLRYEIFKTGSEDCSKNFTSPNGTIESPGFPEKYPHNLDCTFTILAKPKMEIILQFLIFDLEHDPLQVGEGDCKYDWLDIWDGIPHVGPLIGKYCGTKTPSELRSSTGILSLTFHTDMAVAKDGFSARYYLVHQEPLENFQCNVPLGMESGRIANEQISASSTYSDGRWTPQQSRLHGDDNGWTPNLDSNKEYLQVDLRFLTMLTAIATQGAISRETQNGYYVKSYKLEVSTNGEDWMVYRHGKNHKVFQANNDATEVVLNKLHAPLLTRFVRIRPQTWHSGIALRLELFGCRVTDAPCSNMLGMLSGLIADSQISASSTQEYLWSPSAARLVSSRSGWFPRIPQAQPGEEWLQVDLGTPKTVKGVIIQGARGGDSITAVEARAFVRKFKVSYSLNGKDWEYIQDPRTQQPKLFEGNMHYDTPDIRRFDPIPAQYVRVYPERWSPAGIGMRLEVLGCDWTDSKPTVETLGPTVKSEETTTPYPTEEEATECGENCSFEDDKDLQLPSGFNCNFDFLEEPCGWMYDHAKWLRTTWASSSSPNDRTFPDDRNFLRLQSDSQREGQYARLISPPVHLPRSPVCMEFQYQATGGRGVALQVVREASQESKLLWVIREDQGGEWKHGRIILPSYDMEYQIVFEGVIGKGRSGEIAIDDIRISTDVPLENCMEPISAFAGENFKVDIPEIHEREGYEDEIDDEYEVDWSNSSSATSGSGAPSTDKEKSWLYTLDPILITIIAMSSLGVLLGATCAGLLLYCTCSYSGLSSRSCTTLENYNFELYDGLKHKVKMNHQKCCSEA
Gal(a1-3)Gal
  glycan array binding signal (z-score): -0.176
Gal(a1-3)Gal(b1-3)GlcNAc
  glycan array binding signal (z-score): -0.573
Gal(a1-3)Gal(b1-4)Glc
  glycan array binding signal (z-score): -0.465
Gal(a1-3)Gal(b1-4)GlcNAc
  glycan array binding signal (z-score): 0.603
[1]
  glycan array binding signal (z-score): 0.01
[2]
  glycan array binding signal (z-score): 1.45
Gal(a1-3)GalNAc
  glycan array binding signal (z-score): -0.374
[3]
  glycan array binding signal (z-score): -0.84
Gal(a1-4)Gal(b1-4)Glc
  glycan array binding signal (z-score): -0.73
Gal(a1-4)Gal(b1-4)GlcNAc
  glycan array binding signal (z-score): -0.366
[4]
  glycan array binding signal (z-score): -0.655
Gal(a1-4)GlcNAc
  glycan array binding signal (z-score): -0.376
Gal(a1-6)Glc
  glycan array binding signal (z-score): -0.396
Gal(b1-2)Gal
  glycan array binding signal (z-score): -0.222
Gal(b1-3)Gal
  glycan array binding signal (z-score): 0.352
Gal(b1-3)Gal(b1-4)GlcNAc
  glycan array binding signal (z-score): 0.073
[5]
  glycan array binding signal (z-score): 0.191
Gal(b1-3)GalNAc
  glycan array binding signal (z-score): -0.026
[6]
  glycan array binding signal (z-score): -0.835
[7]
  glycan array binding signal (z-score): -0.532
[8]
  glycan array binding signal (z-score): 0.117
[9]
  glycan array binding signal (z-score): -0.961
[10]
  glycan array binding signal (z-score): -0.024
Gal(b1-3)GlcNAc
  glycan array binding signal (z-score): -0.116
[11]
  glycan array binding signal (z-score): -0.398
[12]
  glycan array binding signal (z-score): 0.048
[13]
  glycan array binding signal (z-score): -0.591
[14]
  glycan array binding signal (z-score): -0.42
[15]
  glycan array binding signal (z-score): 0.253
[16]
  glycan array binding signal (z-score): 0.255
